Reference: PubChem BioAssay AID330 (DTP/NCI, 2004)
Inconclusive results and toxic doses are left out. For part of its entries the source gives two or more results. The list is limited to them. An entry can have further records. The records of an entry differ, and nothing given here explains why; some may be repeats, others may stem from another dose, organism or construct than stated.

Tested on: P388 leukemia ip, CD2F1 mice, survival T/C
Assay: NCI In Vivo Anticancer Drug Screen. Data for tumor model P388 Leukemia (intraperitoneal) in CD2F1 (CDF1) mice
Conditions: endpoint: median survival time, higher = longer survival

O=C1C(N2CC2)=C(N2CC2)C(=O)c2ncncc21 was tested, and the T/C (dose: 20.0 mg/kg/injection, schedule: Q01DX005 (ip), vehicle: saline) was 110 % of control and 153 % of control.

CC[C@@]1(O)C[C@H](OC2CC(N(C)C)C(OC3CC(O)C(OC4CCC(=O)C(C)O4)C(C)O3)C(C)O2)c2c(cc3c(c2O)C(=O)c2c(O)ccc(O)c2C3=O)[C@H]1C(=O)OC (stereo partly drawn) was tested, and the T/C (dose: 7.2 mg/kg/injection, schedule: Q04DX003 (ip), vehicle: water) was 105 % of control and 161 % of control.

In the case of O=C(O)CCCc1ccc(N(CCCl)CCCl)cc1, the T/C (dose: 15.0 mg/kg/injection, schedule: Q01DX009 (ip), vehicle: saline + alcohol) is reported as 92 % of control and 166 % of control.
